Drawing on PMC5797217, “UFD-2 is an adaptor-assisted E3 ligase targeting unfolded proteins” (Nature Communications, 2018), this text covers binding for two molecules.

Experiment [1] addresses T1, C. elegans MHC-B motor domain (1-790), His6-tagged (C. elegans) (UniProt P02566).
T1 sequence: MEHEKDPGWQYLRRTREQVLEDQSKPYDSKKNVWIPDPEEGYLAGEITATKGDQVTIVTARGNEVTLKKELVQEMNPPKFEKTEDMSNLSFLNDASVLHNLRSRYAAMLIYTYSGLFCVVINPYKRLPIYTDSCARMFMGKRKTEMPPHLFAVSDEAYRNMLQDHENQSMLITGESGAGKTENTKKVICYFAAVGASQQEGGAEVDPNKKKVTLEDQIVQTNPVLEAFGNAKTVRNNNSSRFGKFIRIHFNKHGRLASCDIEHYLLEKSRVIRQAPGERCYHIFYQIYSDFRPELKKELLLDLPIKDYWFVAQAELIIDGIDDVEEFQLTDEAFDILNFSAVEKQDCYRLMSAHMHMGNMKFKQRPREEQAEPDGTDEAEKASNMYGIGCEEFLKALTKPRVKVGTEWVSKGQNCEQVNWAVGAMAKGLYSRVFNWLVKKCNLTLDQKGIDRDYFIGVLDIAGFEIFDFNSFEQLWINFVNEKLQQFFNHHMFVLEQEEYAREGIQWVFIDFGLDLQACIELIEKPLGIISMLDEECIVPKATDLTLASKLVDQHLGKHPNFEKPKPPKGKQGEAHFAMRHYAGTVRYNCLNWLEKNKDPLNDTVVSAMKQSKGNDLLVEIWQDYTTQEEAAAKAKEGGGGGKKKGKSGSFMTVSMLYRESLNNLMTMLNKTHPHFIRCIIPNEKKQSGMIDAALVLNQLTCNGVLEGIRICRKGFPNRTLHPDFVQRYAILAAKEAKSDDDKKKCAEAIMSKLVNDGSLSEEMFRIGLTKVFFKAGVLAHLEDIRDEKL
As to the kind of experiment: two-step affinity co-purification + SEC; UNC-45 and MHC-B motor domain co-expressed in High Five cells; NiNTA by the His6-tag on myosin, then Streptactin by the Twin-Strep-tag on UNC-45, then Superdex 200 in 20 mM Tris pH 8.0, 150 mM NaCl.

For experiment [2], the target named is T2, C-terminally Strep-tagged UFD-2 (C. elegans), Q09349.
T2 chain: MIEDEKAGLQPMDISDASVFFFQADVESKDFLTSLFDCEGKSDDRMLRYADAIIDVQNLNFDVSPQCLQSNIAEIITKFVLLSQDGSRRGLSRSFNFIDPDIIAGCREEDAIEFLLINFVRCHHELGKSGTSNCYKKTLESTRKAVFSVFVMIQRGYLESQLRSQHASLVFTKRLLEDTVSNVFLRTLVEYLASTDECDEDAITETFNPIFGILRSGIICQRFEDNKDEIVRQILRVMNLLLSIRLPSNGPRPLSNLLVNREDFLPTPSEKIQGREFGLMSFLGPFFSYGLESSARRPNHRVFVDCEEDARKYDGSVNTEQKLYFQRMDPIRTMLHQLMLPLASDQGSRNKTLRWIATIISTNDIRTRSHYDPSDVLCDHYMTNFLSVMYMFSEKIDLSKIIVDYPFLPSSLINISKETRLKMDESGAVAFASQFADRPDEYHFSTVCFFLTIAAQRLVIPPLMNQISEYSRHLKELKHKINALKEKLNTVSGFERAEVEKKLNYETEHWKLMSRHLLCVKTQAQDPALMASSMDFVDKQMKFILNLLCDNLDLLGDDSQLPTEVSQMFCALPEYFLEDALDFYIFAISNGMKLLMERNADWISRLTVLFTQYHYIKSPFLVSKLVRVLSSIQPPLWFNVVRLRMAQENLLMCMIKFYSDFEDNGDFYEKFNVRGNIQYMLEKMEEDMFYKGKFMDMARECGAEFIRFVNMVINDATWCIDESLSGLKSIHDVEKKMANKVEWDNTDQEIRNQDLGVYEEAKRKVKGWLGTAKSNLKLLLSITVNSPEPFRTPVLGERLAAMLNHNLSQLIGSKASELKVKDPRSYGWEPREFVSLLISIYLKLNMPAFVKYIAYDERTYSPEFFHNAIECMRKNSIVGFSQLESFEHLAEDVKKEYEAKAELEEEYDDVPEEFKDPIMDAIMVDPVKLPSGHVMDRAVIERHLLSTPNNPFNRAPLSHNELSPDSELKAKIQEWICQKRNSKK
Briefly: pull-down; three proteins: His6-tagged UNC-45 pre-incubated with myosin (MHC-B motor domain) 60 min 27 °C, then with Strep-UFD-2 60 min 30 °C; Strep-Tactin beads; 5 µM protein; 20 mM Tris pH 7.5, 50 mM NaCl; Coomassie; both purified. The note with it: remark: other sources report otherwise.

Experiment [3] deals with T2, C-terminally Strep-tagged UFD-2 (C. …). As to the kind of experiment: pull-down; Strep-UFD-2 held on Strep-Tactin Superflow beads; His6-tagged UNC-45 proteins pre-incubated 60 min 27 °C, then with UFD-2 60 min 30 °C; 5 µM protein; 20 mM Tris pH 7.5, 50 mM NaCl; elution with desthiobiotin, Coomassie; both purified. The note with it: remark: other sources report otherwise.

These are yes or no findings as the source states them, for the method shown. Some binding calls cover weakened binding; strength is not graded here. Sequences can lack the tags named with a protein.

B1: UNC-45 with N-terminal Twin-Strep-tag (co-expressed with myosin in insect cells) (protein, UniProt G5EG62 1-961)
chain: MVARVQTAEEIRDEGNAAVKDQDYIKADELYTEALQLTTDEDKALRPVLYRNRAMARLKRDDFEGAQSDCTKALEFDGADVKALFRRSLAREQLGNVGPAFQDAKEALRLSPNDKGIVEVLQRLVKANNDKIKQTTSLANKVTDMEKLAFRGEAKDTEQKMTALNNLLVLCRESESGATGVWNQGALVPFVLNLINDASENEEVTVTAIRILDETIKNSVRCMKFLAMHDPDGPKSVRFVCRLMCKKSTKDFVDATGILVQRVFNAMAKMDRQKEMKPDPEVAEANKIWIIRVLLELQEMLQDPKVGAVQRETCIDLFLKNLMHMDGGIPRGWSWKFVEERGLLALLDVASQIPELCEYPVSAETRQHVAICLQRLEEDMVFDTKRTIFKEKVDMFFNALISRCTNDDEGHKYRIKLSCFLITMLQGPVDIGINLITNDQLTPIMLEMAASQDHLMQGIAAELIVATVSKHERAINMLKVGIPVLRALYDSEDPTVKVRALVGLCKIGAAGGDDISKATMKEEAVISLAKTCKKFLLETEKYSVDIRRYACEGLSYLSLDADVKEWIVDDSLLLKALVLLAKKAGALCVYTLATIYANLSNAFEKPKVDEEMVKLAQFAKHHVPETHPKDTEEYVEKRVRALVEEGAVPACVAVSKTESKNALELIARSLLAFAEYEDLRGRIIAEGGTVLCLRLTKEASGEGKIKAGHAIAKLGAKADPMISFPGQRAYEVVKPLCDLLHPDVEGKANYDSLLTLTNLASVSDSIRGRILKEKAIPKIEEFWFMTDHEHLRAAAAELLLNLLFFEKFYEETVAPGTDRLKLWVLYSAEVEEERLSRASAAGFAILTEDENACARIMDEIKSWPEVFKDIAMHEDAETQRRGLMGIANIMHSSNKLCSEIVSSEVFRVLVAVTKLGTINQERAGSTEQAKRGLEAAEKFGLIKATDREIYERENQMSTIQE
As for B1, in experiment [1], the binding entry was “binds”.

B2: UNC-45 full-length, His6-tagged, G5EG62 1-961 (protein)
chain: B1 chain
For B2, the binding entry in experiment [2] and in experiment [3] was “binds” in each case.
